# Measurements taken from the supplement of paper PMC8728848.
# The other results are listed elsewhere or left out.
# Assays:
# Assay in all cases: glycan array binding signal (z-score within array); higher = stronger binding
# Conditions in all cases: glycan notation: IUPAC condensed, linker removed
# [1] = molecular target: Fuc(a1-2)Gal6S(b1-3)GlcNAc6S
# Outline: (§1)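 From the Consortium for Functional Glycomics database, 3228 arrays were curated, keeping only those whose protein sequence was available. Binding is given as a within-array Z-score averaged across arrays sharing a protein sequence and across linkers. Negative Z-scores can be read as non-binding.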
# Fuc(a1-2)Gal6S(b1-4)Glc = molecular target: Fuc(a1-2)Gal6S(b1-4)Glc
# Outline: as §1
# [2] = molecular target: Fuc(a1-2)Gal6S(b1-4)Glc6S
# Outline: as §1
# Fuc(a1-2)[Gal(a1-3)]Gal = molecular target: Fuc(a1-2)[Gal(a1-3)]Gal
# Outline: as §1
# [3] = molecular target: Fuc(a1-2)[Gal(a1-3)]Gal(b1-3)GalNAc
# Outline: as §1
# [4] = molecular target: Fuc(a1-2)[Gal(a1-3)]Gal(b1-3)GalNAc(b1-3)Gal(a1-4)Gal(b1-4)Glc
# Outline: as §1
# [5] = molecular target: Fuc(a1-2)[Gal(a1-3)]Gal(b1-3)GlcNAc
# Outline: as §1
# [6] = molecular target: Fuc(a1-2)[Gal(a1-3)]Gal(b1-3)GlcNAc(b1-2)Man(a1-3)[Fuc(a1-2)[Gal(a1-3)]Gal(b1-3)GlcNAc(b1-2)Man(a1-6)]Man(b1-4)GlcNAc(b1-4)GlcNAc
# Outline: as §1
# [7] = molecular target: Fuc(a1-2)[Gal(a1-3)]Gal(b1-3)GlcNAc(b1-2)Man(a1-3)[Fuc(a1-2)[Gal(a1-3)]Gal(b1-3)GlcNAc(b1-2)Man(a1-6)]Man(b1-4)GlcNAc(b1-4)[Fuc(a1-6)]GlcNAc
# Outline: as §1
# [8] = molecular target: Fuc(a1-2)[Gal(a1-3)]Gal(b1-3)GlcNAc(b1-3)GalNAc
# Outline: as §1
# [9] = molecular target: Fuc(a1-2)[Gal(a1-3)]Gal(b1-3)GlcNAc(b1-6)GalNAc
# Outline: as §1
# [10] = molecular target: Fuc(a1-2)[Gal(a1-3)]Gal(b1-4)Glc
# Outline: as §1
# [11] = molecular target: Fuc(a1-2)[Gal(a1-3)]Gal(b1-4)GlcNAc
# Outline: as §1
# [12] = molecular target: Fuc(a1-2)[Gal(a1-3)]Gal(b1-4)GlcNAc(b1-2)Man
# Outline: as §1
# [13] = molecular target: Fuc(a1-2)[Gal(a1-3)]Gal(b1-4)GlcNAc(b1-2)Man(a1-3)[Fuc(a1-2)[Gal(a1-3)]Gal(b1-4)GlcNAc(b1-2)Man(a1-6)]Man(b1-4)GlcNAc(b1-4)GlcNAc
# Outline: as §1
# [14] = molecular target: Fuc(a1-2)[Gal(a1-3)]Gal(b1-4)GlcNAc(b1-2)Man(a1-3)[Fuc(a1-2)[Gal(a1-3)]Gal(b1-4)GlcNAc(b1-2)Man(a1-6)]Man(b1-4)GlcNAc(b1-4)[Fuc(a1-6)]GlcNAc
# Outline: as §1
# [15] = molecular target: Fuc(a1-2)[Gal(a1-3)]Gal(b1-4)GlcNAc(b1-3)GalNAc
# Outline: as §1
# [16] = molecular target: Fuc(a1-2)[Gal(a1-3)]Gal(b1-4)GlcNAc(b1-3)[Fuc(a1-2)[Gal(a1-3)]Gal(b1-4)GlcNAc(b1-6)]GalNAc
# Outline: as §1
# [17] = molecular target: Fuc(a1-2)[Gal(a1-3)]Gal(b1-4)GlcNAc(b1-6)GalNAc
# Outline: as §1
# [18] = molecular target: Fuc(a1-2)[Gal(a1-3)]Gal(b1-4)[Fuc(a1-3)]Glc
# Outline: as §1
# [19] = molecular target: Fuc(a1-2)[Gal(a1-3)]Gal(b1-4)[Fuc(a1-3)]GlcNAc
# Outline: as §1
# [20] = molecular target: Fuc(a1-2)[Gal(a1-3)]Gal(b1-4)[Fuc(a1-3)]GlcNAc(b1-3)GalNAc
# Outline: as §1
# [21] = molecular target: Fuc(a1-2)[Gal(a1-4)]Gal(b1-4)GlcNAc
# Outline: as §1
# [22] = molecular target: Fuc(a1-2)[GalNAc(a1-3)]Gal
# Outline: as §1
# [23] = molecular target: Fuc(a1-2)[GalNAc(a1-3)]Gal(b1-3)GalNAc(a1-3)[Fuc(a1-2)]Gal(b1-4)GlcNAc
# Outline: as §1
# [24] = molecular target: Fuc(a1-2)[GalNAc(a1-3)]Gal(b1-3)GalNAc(b1-3)Gal(a1-4)Gal(b1-4)Glc
# Outline: as §1
# [25] = molecular target: Fuc(a1-2)[GalNAc(a1-3)]Gal(b1-3)GlcNAc
# Outline: as §1
# [26] = molecular target: Fuc(a1-2)[GalNAc(a1-3)]Gal(b1-3)GlcNAc(b1-2)Man(a1-3)[Fuc(a1-2)[GalNAc(a1-3)]Gal(b1-3)GlcNAc(b1-2)Man(a1-6)]Man(b1-4)GlcNAc(b1-4)GlcNAc
# Outline: as §1
# [27] = molecular target: Fuc(a1-2)[GalNAc(a1-3)]Gal(b1-3)GlcNAc(b1-2)Man(a1-3)[Fuc(a1-2)[GalNAc(a1-3)]Gal(b1-3)GlcNAc(b1-2)Man(a1-6)]Man(b1-4)GlcNAc(b1-4)[Fuc(a1-6)]GlcNAc
# Outline: as §1
# [28] = molecular target: Fuc(a1-2)[GalNAc(a1-3)]Gal(b1-3)GlcNAc(b1-3)GalNAc
# Outline: as §1
# [29] = molecular target: Fuc(a1-2)[GalNAc(a1-3)]Gal(b1-3)GlcNAc(b1-6)GalNAc
# Outline: as §1
# [30] = molecular target: Fuc(a1-2)[GalNAc(a1-3)]Gal(b1-4)Glc
# Outline: as §1
# [31] = molecular target: Fuc(a1-2)[GalNAc(a1-3)]Gal(b1-4)GlcNAc
# Outline: as §1
# [32] = molecular target: Fuc(a1-2)[GalNAc(a1-3)]Gal(b1-4)GlcNAc(b1-2)Man
# Outline: as §1
# [33] = molecular target: Fuc(a1-2)[GalNAc(a1-3)]Gal(b1-4)GlcNAc(b1-2)Man(a1-3)[Fuc(a1-2)[GalNAc(a1-3)]Gal(b1-4)GlcNAc(b1-2)Man(a1-6)]Man(b1-4)GlcNAc(b1-4)GlcNAc
# Outline: as §1
# [34] = molecular target: Fuc(a1-2)[GalNAc(a1-3)]Gal(b1-4)GlcNAc(b1-2)Man(a1-3)[Fuc(a1-2)[GalNAc(a1-3)]Gal(b1-4)GlcNAc(b1-2)Man(a1-6)]Man(b1-4)GlcNAc(b1-4)[Fuc(a1-6)]GlcNAc
# Outline: as §1
# [35] = molecular target: Fuc(a1-2)[GalNAc(a1-3)]Gal(b1-4)GlcNAc(b1-3)Gal(b1-4)GlcNAc
# Outline: as §1
# [36] = molecular target: Fuc(a1-2)[GalNAc(a1-3)]Gal(b1-4)GlcNAc(b1-3)Gal(b1-4)GlcNAc(b1-3)Gal(b1-4)GlcNAc
# Outline: as §1
# [37] = molecular target: Fuc(a1-2)[GalNAc(a1-3)]Gal(b1-4)GlcNAc(b1-3)GalNAc
# Outline: as §1
# [38] = molecular target: Fuc(a1-2)[GalNAc(a1-3)]Gal(b1-4)GlcNAc(b1-3)[Fuc(a1-2)[GalNAc(a1-3)]Gal(b1-4)GlcNAc(b1-6)]GalNAc
# Outline: as §1
# [39] = molecular target: Fuc(a1-2)[GalNAc(a1-3)]Gal(b1-4)GlcNAc(b1-6)GalNAc
# Outline: as §1
# [40] = molecular target: Fuc(a1-2)[GalNAc(a1-3)]Gal(b1-4)[Fuc(a1-3)]GlcNAc
# Outline: as §1
# [41] = molecular target: Fuc(a1-2)[GalNAc(a1-3)]Gal(b1-4)[Fuc(a1-3)]GlcNAc(b1-3)GalNAc
# Outline: as §1
# [42] = molecular target: Fuc(a1-2)[GalNAc(a1-4)]Gal(b1-4)GlcNAc
# Outline: as §1
# [43] = molecular target: Fuc(a1-2)[GalNAc(b1-3)]Gal
# Outline: as §1
binder,measurement,setting,value
rCnSL-proA (Clitocybe nebularis) (protein) AAFFSLVVLLALLPFGIHASALPSTELTPRVNPNLPGPNDVFVGFRGTNNIVGAIYEKDGIKDTPLNNGADAEMGPGSYITDGLFTARIFASGSAGNNPGTTATVCKIYASGVQWRGAPKGYIPVAYFGNGPTAEQRRQTYLRTLGLPGTAIRFGNLNTNPGQGPTAPRQMVVPPGPLRSLLKASCFPAADTRLPQTLHYFEKRVDWNIITAADSQTWGH,glycan array binding signal (z-score),[1],0.338
same,glycan array binding signal (z-score),Fuc(a1-2)Gal6S(b1-4)Glc,-0.35
same,glycan array binding signal (z-score),[2],-0.281
same,glycan array binding signal (z-score),Fuc(a1-2)[Gal(a1-3)]Gal,-0.219
same,glycan array binding signal (z-score),[3],-0.214
same,glycan array binding signal (z-score),[4],-0.278
same,glycan array binding signal (z-score),[5],-0.04
same,glycan array binding signal (z-score),[6],0.319
same,glycan array binding signal (z-score),[7],0.768
same,glycan array binding signal (z-score),[8],0.321
same,glycan array binding signal (z-score),[9],0.055
same,glycan array binding signal (z-score),[10],-0.005
same,glycan array binding signal (z-score),[11],-0.394
same,glycan array binding signal (z-score),[12],-0.398
same,glycan array binding signal (z-score),[13],-0.363
same,glycan array binding signal (z-score),[14],0.409
same,glycan array binding signal (z-score),[15],-0.538
same,glycan array binding signal (z-score),[16],-0.073
same,glycan array binding signal (z-score),[17],-0.306
same,glycan array binding signal (z-score),[18],-0.598
same,glycan array binding signal (z-score),[19],-0.146
same,glycan array binding signal (z-score),[20],-0.588
same,glycan array binding signal (z-score),[21],0.128
same,glycan array binding signal (z-score),[22],-0.39
same,glycan array binding signal (z-score),[23],-0.544
same,glycan array binding signal (z-score),[24],-0.274
same,glycan array binding signal (z-score),[25],0.497
same,glycan array binding signal (z-score),[26],-0.563
same,glycan array binding signal (z-score),[27],0.696
same,glycan array binding signal (z-score),[28],0.293
same,glycan array binding signal (z-score),[29],-0.439
same,glycan array binding signal (z-score),[30],-0.488
same,glycan array binding signal (z-score),[31],-0.387
same,glycan array binding signal (z-score),[32],-0.723
same,glycan array binding signal (z-score),[33],-0.716
same,glycan array binding signal (z-score),[34],1.61
same,glycan array binding signal (z-score),[35],-0.422
same,glycan array binding signal (z-score),[36],0.32
same,glycan array binding signal (z-score),[37],-0.606
same,glycan array binding signal (z-score),[38],-0.16
same,glycan array binding signal (z-score),[39],-0.494
same,glycan array binding signal (z-score),[40],0.05
same,glycan array binding signal (z-score),[41],1.05
same,glycan array binding signal (z-score),[42],-1.23
same,glycan array binding signal (z-score),[43],-0.69
